{"source": "PubChem BioAssay AID686978", "about": "(National Center for Advancing Translational Sciences (NCATS), 2013)", "note": "Screen size: about 420,000 compounds; about 64,000 (15%) were called active. The shares of active, inactive and inconclusive entries below differ from those in the screen. Calls follow the shape of the dose curve; as a rule, active = well fitted inhibition curve with a large enough effect; inconclusive = small, poorly fitted or top-dose-only effect; inactive = flat fitted curve, though single readings scatter. No potency is given beside an inconclusive call; the fits are too rough. % is scaled to controls: 0 for no effect and ±100 for the full control effect; potency is read from the fitted curve at half-maximal effect; tags tell the direction and shape of the fitted curve.", "data": [{"assay": "qHTS for Inhibitors of human tyrosyl-DNA phosphodiesterase 1 (TDP1): qHTS in cells in absence of CPT; also: nearly all actives have a fitted effect of over 55% in size", "details": "DT40 Tdp1-/- hTDP1 cells, no CPT, ATP luminescence, 48 h; activity change, negative = growth inhibition: at 46.2 µM (top of the series)", "method_in_brief": "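Luminescent ATP content (CellTiter-Glo) served as the growth readout. Knockout chicken DT40 cells expressing human TDP1 were exposed to compounds without camptothecin for a minimum 48 hr at 37 °C.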", "values": [{"smiles": "CC(C)C[C@H]1CN(CCCC[C@@H]2CNC(=O)C(=O)N2Cc2ccccc2)C(=O)C(=O)N1Cc1ccccc1", "Potency": "inactive"}, {"smiles": "Cc1nc(NC(=S)Nc2ccccc2)sc1C", "Potency": "inconclusive [inhibitor, single point]"}, {"smiles": "COc1cccc(OC)c1C(=O)OCC(=O)NCc1ccco1", "Potency": "inactive"}, {"smiles": "CCOc1ccc(CCNC(=O)COC(=O)CSc2ccc(C)cc2)cc1OCC", "Potency": "inactive"}, {"smiles": "CCCCCC(=O)N1C[C@@H](n2cc(-c3ccc(F)cc3)nn2)[C@H](O)C[C@@H]1c1ccccc1", "Potency": "inconclusive [inhibitor, single point]"}, {"smiles": "Cc1ccc(C)c(NC(=S)N(CCN(C)C)C(C)c2ccccn2)c1", "note": "(stereo not given)", "Potency": "inactive"}, {"smiles": "CCOc1ccc2[nH]cc(S(=O)(=O)c3ccc(C)cc3)c(=O)c2c1", "Potency": "inconclusive [inhibitor, partial curve]"}, {"smiles": "Cc1ccccc1Nc1nc2ccccc2s1", "Potency": "inconclusive [inhibitor, single point]"}, {"smiles": "O=C(Cn1cccc1C(=O)c1ccccc1)NCc1cccc(Cl)c1", "Potency": "inconclusive [inhibitor, single point]"}, {"smiles": "CCn1nc(C(C)C)cc1C(=O)N1CCCC(CO)(Cc2ccc(F)cc2F)C1", "note": "(stereo not given)", "Potency": "inconclusive [inhibitor, single point]"}, {"smiles": "COc1ccc(CNC(=S)N/N=C(\\C)c2ccc(OC)cc2)cc1", "Potency": "active: 5.17 µM"}, {"smiles": "O=C(C[C@@H]1C/C=C\\C[C@H](Cc2ccc(F)cc2)C(=O)OC[C@@H](Cc2c[nH]c3ccccc23)NC1=O)NCCO", "Potency": "inconclusive [inhibitor, single point]"}, {"smiles": "CCOc1cccc(=O)c2c(C)n(CC(=O)c3ccccc3)c(C)c12", "Potency": "inconclusive [inhibitor, partial curve]"}, {"smiles": "Cc1cc(C)cc(NC(=O)CN(c2cccc(C)c2C)S(=O)(=O)c2ccccc2)c1", "Potency": "active: 20.6 µM"}, {"smiles": "Cc1cc(C)n(C(=O)COc2ccccc2[N+](=O)[O-])n1", "Potency": "inactive"}, {"smiles": "COc1ccc(N(C(=O)c2snc(C(N)=O)c2N)C(C(=O)NC2CCCC2)c2cccs2)cc1OC", "note": "(stereo not given)", "Potency": "inactive"}, {"smiles": "S=P(c1ccc(N2CCOCC2)cc1N1CCOCC1)(N1CCOCC1)N1CCOCC1", "Potency": "inactive"}, {"smiles": "COc1ccc(C2=NS(=O)(=O)N(C)C(C(=O)NC(C)c3ccccc3)=C2)cc1OC", "note": "(stereo not given)", "Potency": "inconclusive [inhibitor, single point]"}, {"smiles": "O=C(CSc1nc(-c2ccccc2)no1)N1CCN(c2ccc(F)cc2)CC1", "Potency": "inactive"}, {"smiles": "Cc1cc2nc(-c3cccc(Br)c3)c(Cc3cccc(Cl)c3)n2c(C)c1Br", "Potency": "inactive"}, {"smiles": "CC1=C(C(=O)OC2CCCC2)C(c2ccc(Cl)cc2)CC(=O)N1", "note": "(stereo not given)", "Potency": "inconclusive [inhibitor, single point]"}, {"smiles": "CON(C)c1nc(C2CCCCC2)c2cc(C)ccc2n1", "Potency": "inconclusive [inhibitor, partial curve, poor fit]"}, {"smiles": "CCc1cc[n+](C2=C([O-])c3ccccc3C(=O)/C2=N\\S(=O)(=O)c2cccs2)cc1", "Potency": "active: 5.17 µM"}, {"smiles": "O=C1CCCC2=C1C1(CCCCC1)N=C(Nc1nc3ccccc3o1)N2", "Potency": "active: 13 µM"}, {"smiles": "Cc1cc(N)n2ncc(-c3ccc(F)cc3)c2n1", "Potency": "inactive"}, {"smiles": "Cc1cc(C)c2oc(C(=O)N(Cc3ccccc3)C3CCS(=O)(=O)C3)cc(=O)c2c1", "note": "(stereo not given)", "Potency": "inconclusive [inhibitor, single point]"}, {"smiles": "Cc1ccc2[nH]c(=O)c(CN(Cc3cccs3)C(=S)NCC3CCCO3)cc2c1", "note": "(stereo not given)", "Potency": "active: 13 µM"}, {"smiles": "CCOC(=O)C1=CCN(S(=O)(=O)c2ccc(Cl)cc2)C1c1ccc(C)cc1", "note": "(stereo not given)", "Potency": "inconclusive [inhibitor, single point]"}, {"smiles": "O=C1CCCc2c1cc(-c1ccccc1)n2-c1ccccc1", "Potency": "inconclusive [inhibitor, single point]"}, {"smiles": "O=C1N(c2ccccc2)C(c2ccc(Cl)cc2)N2CCCN12", "note": "(stereo not given)", "Potency": "inactive"}, {"smiles": "CCCCN(Cc1ccco1)C(=O)C1CCCN(c2ncnc3c2nc2n3CCCCC2)C1", "note": "(stereo not given)", "Potency": "active: 14.6 µM"}, {"smiles": "c1ccc2c(c1)CC1(CCCC1)N=C2N1CCOCC1", "Potency": "inactive"}, {"smiles": "O=C(NNS(=O)(=O)c1ccccc1C(F)(F)F)c1cc2ncc(C(F)(F)F)cc2s1", "Potency": "inactive"}, {"smiles": "CCN(C(=O)Nc1cccc2ccccc12)c1ccccc1", "Potency": "active: 20.6 µM"}, {"smiles": "COc1ccc(-c2nc(SCCOc3cc(C)ccc3C(C)C)n3[nH]c(=O)cc3n2)cc1", "Potency": "active: 18.4 µM"}, {"smiles": "CN(C)CCN1C(=O)C(=O)/C(=C(/O)c2ccccc2)C1c1ccccc1F", "note": "(stereo not given)", "activity change, negative = growth inhibition": "inconclusive: -37.4% [inhibitor]"}, {"smiles": "COc1cccc(/C=N/Nc2nnc(C)n2N)c1OCc1ccccc1Cl", "Potency": "active: 23.1 µM"}, {"smiles": "COc1cccc2c(=O)c(C(=O)NCCc3ccccc3)c[nH]c12", "Potency": "inconclusive [inhibitor, single point]"}, {"smiles": "CCOC(=O)Cc1c(C)nc2c(C#N)c(C)nn2c1C", "Potency": "inconclusive [inhibitor, single point]"}, {"smiles": "Cc1cccc(NC(=O)C2CCN(S(=O)(=O)c3c(C)noc3/C=C/c3ccco3)CC2)c1C", "Potency": "inactive"}, {"smiles": "CCn1nc([N+](=O)[O-])c(C(C#N)c2nc3ccccc3n2C)c(Cl)c1=O", "note": "(stereo not given)", "Potency": "inconclusive [inhibitor, single point]"}, {"smiles": "C/C(=N\\Nc1nc(C)cc(-c2ccccc2)n1)c1ccc(F)cc1", "Potency": "active: 7.31 µM"}, {"smiles": "Cc1ccccc1NC(=O)NCc1ccco1", "Potency": "inactive"}, {"smiles": "CCCOC1CCCN(C(=O)c2ccc(OC3CCN(Cc4ccccn4)CC3)cc2)C1", "note": "(stereo not given)", "Potency": "inactive"}, {"smiles": "CCN1C(=O)[C@H]2[C@@H](c3ccc(C(F)(F)F)cc3)N[C@]3(CCCN(Cc4ccc(OC)cc4)C3=O)[C@H]2C1=O", "Potency": "active: 10.3 µM"}, {"smiles": "COc1ccc(-c2sc3cc(OC)ccc3c2-c2ccc(OCCN3CCOCC3)cc2)cc1", "Potency": "inconclusive [inhibitor, single point]"}, {"smiles": "CN(C(=O)C=Cc1ccccc1)c1ccccc1", "Potency": "inactive"}, {"smiles": "CC(C)N(C(=O)CO/N=C/c1cccc([N+](=O)[O-])c1)C(C)C", "Potency": "inconclusive [inhibitor, single point]"}, {"smiles": "CC(C)N(C(=O)CSc1nc(Cc2ccccc2)nc2ccccc12)C(C)C", "Potency": "inconclusive [inhibitor, single point]"}, {"smiles": "Cc1ccc(C(=O)COC(=O)c2cccc(NC(=O)c3ccc([N+](=O)[O-])cc3[N+](=O)[O-])c2)cc1", "Potency": "inconclusive [inhibitor, partial curve]"}, {"smiles": "O=C(NCc1ccccc1Cl)C1CCN(C(=O)c2ccc(F)cc2)CC1", "Potency": "inconclusive [inhibitor, single point]"}, {"smiles": "Fc1ccccc1CSc1nncn1NC/C=C/c1ccccc1", "Potency": "inconclusive [inhibitor, single point]"}, {"smiles": "CCCN(C(=O)Cn1nc(Cc2cccnc2)c2ccccc2c1=O)c1ccc(C(C)C)cc1", "Potency": "active: 25.9 µM"}, {"smiles": "Cc1nc(N(C)C)c2sc(=S)n(Cc3ccccc3)c2n1", "Potency": "inactive"}, {"smiles": "O=C(OC1CC2CC1[C@H]1CCCCN1C2=O)N1CCN(S(=O)(=O)c2ccccc2)CC1", "note": "(stereo not given in full)", "Potency": "inconclusive [inhibitor, single point]"}, {"smiles": "COc1cc(OC)c2ccc(=O)oc2c1", "Potency": "inactive"}, {"smiles": "COCCCNC(=O)C1CC(=O)N(c2ccc(C)cc2)C1", "note": "(stereo not given)", "Potency": "inactive"}, {"smiles": "O=C(Cc1ccccc1)NCCSC1CCCCC1", "Potency": "inconclusive [inhibitor, single point]"}, {"smiles": "CC1(C)Cc2c(sc3nnn(CC(=O)Nc4ccccc4)c(=O)c23)CO1", "Potency": "inconclusive [inhibitor, partial curve]"}, {"smiles": "CCOc1ccc(CCNC(c2nnc(-c3ccccc3)o2)c2ccccc2Cl)cc1OCC", "note": "(stereo not given)", "Potency": "active: 14.6 µM"}, {"smiles": "O=[N+]([O-])c1ccc(C2NS(=O)(=O)N=C3CCCCCN32)cc1", "note": "(stereo not given)", "Potency": "inconclusive [inhibitor, partial curve, poor fit]"}, {"smiles": "O=S1(=O)C[C@H](N2CCCC2)[C@@H](COCc2ccccc2)N1", "Potency": "inactive"}, {"smiles": "O=C(/C=C/c1ccccc1)c1ccoc1", "Potency": "inconclusive [inhibitor, single point]"}, {"smiles": "O=S(=O)(Nc1ccc(N2CCCCC2)cc1)c1cccc2cccnc12", "Potency": "inconclusive [inhibitor, partial curve]"}, {"smiles": "CCOC(=O)CC(=O)CSc1n[nH]c(=O)[nH]c1=O", "Potency": "inactive"}, {"smiles": "COc1ccccc1CNc1ccnc(-c2ccoc2)n1", "Potency": "inconclusive [inhibitor, partial curve, poor fit]"}, {"smiles": "COc1ccc(S(=O)(=O)N(C)CC(=O)Nc2ccc(C)cc2)cc1OC", "Potency": "inconclusive [inhibitor, partial curve]"}, {"smiles": "CC(=O)Nc1ccc2cc3ccc(NC(C)=O)cc3nc2c1", "Potency": "inactive"}, {"smiles": "C=CCn1c(C)cc(C(=O)COC(=O)c2cncc(Br)c2)c1C", "Potency": "inconclusive [inhibitor, single point]"}, {"smiles": "Cc1ccc(S(=O)(=O)Nc2nc3n(n2)C(c2ccc(Cl)cc2)C=C(c2ccccc2)N3)cc1", "note": "(stereo not given)", "Potency": "inconclusive [inhibitor, single point]"}, {"smiles": "O=C(O)c1[nH]c2ccc([N+](=O)[O-])cc2c1-c1ccccc1", "Potency": "inactive"}, {"smiles": "CC(C)n1ncc2c(C(=O)Nc3ccccc3SCC(N)=O)cc(C3CC3)nc21", "Potency": "inconclusive [inhibitor, single point]"}, {"smiles": "CCCn1c2ccc(C)cc2c2nnc(SCCN3CCCCC3)nc21", "Potency": "active: 20.6 µM"}, {"smiles": "N#CCCN(C(=O)COC(=O)C1CCN(S(=O)(=O)c2cccs2)CC1)c1ccccc1", "Potency": "inactive"}, {"smiles": "Cc1ccc(Cn2c(NS(=O)(=O)c3ccccc3)nc3ccccc32)cc1", "Potency": "inconclusive [inhibitor, single point]"}]}]}
